Laboratory results: PubChem BioAssay AID504832 (National Center for Advancing Translational Sciences (NCATS), 2011)
Out of some 310,000 compounds screened, about 18,000 (5.8%) were called active. Inconclusive results, whose numbers are uncertain, are shown with a selection of clear calls. The call rests on the fitted dose curve; in most records, active means well fitted inhibition curve with a large enough effect; inconclusive means small, poorly fitted or top-dose-only effect, or another doubt; inactive means no such curve, though single readings can be large or run the other way. No potency is given beside an inconclusive call; the fits are too rough.

test: Primary qHTS for delayed death inhibitors of the malarial parasite plastid, 48 hour incubation; conditions: P. falciparum luciferase growth in erythrocytes; series mostly up to 28.7 µM
Outline: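 Cell-based growth assay: transgenic P. falciparum expressing firefly luciferase, cultured in red cells within RPMI 1640 containing 0.5% w/v Albumax, 24 mM bicarbonate and gentamycin. A drop in luciferase activity indicates inhibition.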
Potency means the concentration at half of the fitted maximal effect; tags describe the fitted curve by direction and shape.

SMILES | Potency
COc1cccc(CC(=O)Nn2c(C)nc3ccccc3c2=O)c1 | inactive
Cc1csc(NC(=O)c2ccc(Cn3nc(C)c(Br)c3C)o2)n1 | inconclusive [inhibitor, partial curve, poor fit]
Cn1nc(C(=O)NCCc2ccc3c(c2)OCCO3)c2ccccc2c1=O | inconclusive [inhibitor, partial curve, poor fit]
COc1cccc(NC(=O)CN(C)C(=O)c2ccc(N3CCCCC3)c([N+](=O)[O-])c2)c1 | inconclusive [inhibitor, full curve, poor fit]
COc1cc(-c2noc(C)c2C#CC2(O)CCCCC2)cc(OC)c1OC | inconclusive [inhibitor, partial curve, poor fit]
CCNC(=O)C1Cc2ccccc2CN1S(=O)(=O)c1ccc(F)cc1 (stereo not drawn) | active: 0.828 µM
COc1cc2nc(=S)n3[nH]c(CCn4nc(C)cc4C)nc3c2cc1OC | active: 2.94 µM
CC1CCN(C(=O)CSc2nnc3c(n2)[nH]c2ccc(F)cc23)CC1 | active: 1.65 µM
COc1ccc(OC)c(N(CC(=O)Nc2cccnc2)S(=O)(=O)c2ccc(OC)c(OC)c2)c1 | inconclusive [inhibitor, partial curve]
Cc1ccc(-c2c3c(nc4sc(C(N)=O)c(N)c24)CCCC3)o1 | inactive
Cc1cc(C)nc(N/N=C2/CCSc3ccc(F)cc32)n1 | inconclusive [inhibitor, single point]
CN(C)c1cccc(C(=O)OC(C(=O)Nc2ccc([N+](=O)[O-])cc2Br)c2ccccc2)c1 (stereo not drawn) | inconclusive [inhibitor, single point]
Cc1ccsc1C(=O)Nc1cc(C(C)(C)C)nn1-c1ccccc1 | inconclusive [inhibitor, partial curve, poor fit]
CCOC(=O)N1CCC(NC(=O)C2CCCN(c3nc4ccccc4o3)C2)CC1 (stereo not drawn) | inconclusive [inhibitor, partial curve, poor fit]
O=C(Nc1cc(S(=O)(=O)N2CCOCC2)ccc1Cl)C(=O)c1c(-c2ccccc2)cc2ccccn12 | inconclusive [inhibitor, single point]
O=c1cc(N2CCCCC2)c(-c2ccccc2)nn1Cc1ccccc1Cl | active: 3.29 µM
Cc1nn(C)c(Oc2ccccc2)c1CCNS(=O)(=O)c1ccc(Cl)cc1 | inconclusive [inhibitor, single point]
Cc1cc(C)c(C(=O)C[n+]2cccc(C(N)=O)c2)c(C)c1 | inconclusive [inhibitor, single point]
COc1ccc(CNCCC2(Cc3ccccc3)CC(C)N(C)CC2C)cc1OC (stereo not drawn) | inconclusive [inhibitor, single point]
Cn1cc(S(=O)(=O)c2ccccc2)n(C)c1=O | inactive
COc1ccc(-c2cc(C(F)(F)F)nc(SCCC(=O)N3CCN4CCCC4C3)n2)cc1 (stereo not drawn) | inconclusive [inhibitor, single point]
O=C(NCCc1c[nH]c2ccccc12)C(=O)NCC1OCCCN1S(=O)(=O)c1cc(F)ccc1F (stereo not drawn) | active: 13.1 µM
Fc1ccccc1-c1csc(=Nc2cccnc2)n1CCCn1ccnc1 | active: 7.38 µM

SMILES | Potency
COc1ccc(NC(=O)c2ccco2)cc1NC(=O)c1cccc(OC(C)C)c1 | inconclusive [inhibitor, single point]
COc1ccc(/C=N/N=C2/NC(=O)C(CC(=O)O)S2)cc1OS(=O)(=O)c1ccccc1 (stereo not drawn) | inactive
COC(=O)[C@@]1(Cc2ccc(OC)cc2)[C@H]2c3cc(C(=O)N4CCCC4)n(CCSCCO)c3C[C@H]2CN1C(=O)c1ccccc1 | active: 1.04 µM
COC(=O)c1nn(-c2ccc(OC)cc2)c(=O)c2c(N)sc(C)c12 | inconclusive [inhibitor, partial curve, poor fit]
COc1ccc(S(=O)(=O)N2CCC(C(=O)N[C@H](C(=O)NCc3ccncc3)C(C)C)CC2)cc1 | inconclusive [inhibitor, single point]
COc1cc(NC(=O)c2cc([N+](=O)[O-])ccc2NC(=O)CNC2CCCCC2)cc(OC)c1 | active: 0.828 µM
Clc1cccc(Cl)c1-c1nnc2ccc(N3CCOCC3)nn12 | inconclusive [inhibitor, single point]
O=C1CCCc2nc(N3CCN(C(c4ccccc4)c4ccccc4)CC3)ncc21 | inconclusive [inhibitor, full curve, poor fit]
NC(=S)N/N=C1\CCOc2ccc(F)cc21 | inconclusive [inhibitor, full curve, poor fit]
Cc1ccc(C)n1-c1ccc2c(c1)COC2=O | inconclusive [inhibitor, single point]
CCOc1ccccc1NC(=O)CCCCCN1C(=O)[C@@H]2Cc3ccccc3CN2C1=O | inconclusive [inhibitor, single point]
Cc1cc(C(=O)CN2C(=O)NC3(CCCc4sccc43)C2=O)c(C)n1-c1ccccc1 (stereo not drawn) | inconclusive [inhibitor, partial curve, poor fit]
CC1CCCN(CC(O)COc2ccc(S(=O)(=O)N3CCCC3)cc2[N+](=O)[O-])C1 (stereo not drawn) | inconclusive [inhibitor, single point]
CC(Oc1ccc2c(=O)c(-c3ccc(Cl)cc3)c(C(F)(F)F)oc2c1)C(=O)O (stereo not drawn) | active: 10.4 µM
COC(=O)c1cc(C)sc1NC(=O)CCc1ccccc1 | inactive
CNc1ccccc1C(C)(C)c1cc(-c2cccc([N+](=O)[O-])c2)no1 | inconclusive [inhibitor, partial curve, poor fit]
Cc1c(C(=O)NC2CCOC2)oc2c(F)cccc12 (stereo not drawn) | inactive
Cc1cc(Br)cc2cn[nH]c12 | inactive
CCC1C(C)=NN=C(c2ccc(OC)c(OC)c2)c2cc(OC)c(OC)cc21 (stereo not drawn) | inconclusive [inhibitor, partial curve]
Cc1[nH]nc2nc(SCC(=O)NC3CCCCC3)n(-c3ccc(Br)cc3)c(=N)c12 | inactive
O=C(NC1=NCCS1)C1CCN(S(=O)(=O)c2ccccc2C(F)(F)F)CC1 | inconclusive [inhibitor, single point]
COC(=O)/C=c1/s/c(=C(\C#N)C(=O)NCc2ccco2)n(-c2ccccc2)c1=O | inactive
Cc1ccc(NC(=O)Cn2c(=O)cnc3ccccc32)cc1S(=O)(=O)N1CCCCC1 | inconclusive [inhibitor, single point]

SMILES | Potency
COCCNC(=O)C(NC(=O)C1CCCCC1)C(C)C (stereo not drawn) | inactive
CN(C(=O)CN1CCN(c2ccccc2F)CC1)C1CCCc2ccccc21 (stereo not drawn) | inactive
CC(=O)c1ccccc1NC(=O)COC(=O)c1cc2ccccc2[nH]1 | inconclusive [inhibitor, single point]
CC(C)(C)n1cccc1/C=C1\C(=O)NC(=O)N(c2ccccc2)C1=O | inactive
Cc1ccc(S(=O)(=O)c2c[nH]c3cc4c(cc3c2=O)OCO4)cc1 | inactive
CC(=O)c1ccc(N2CCN(S(=O)(=O)c3c(C(=O)N4CCCCC4)c(C)n(C)c3C)CC2)cc1 | inconclusive [inhibitor, partial curve, poor fit]
COc1cccc(N2CCN(CC(=O)NCc3ccccc3)CC2)c1 | inactive
CC(C)(C)NCc1ccc(OCc2cccs2)cc1 | inactive
Nc1nc(N)c2nc(CNc3ccc(C(=O)NC(CCC(=O)O)C(=O)O)cc3)cnc2n1 (stereo not drawn) | inconclusive [inhibitor, full curve, poor fit]
CN(C)NC(=S)Nc1cccc(Cl)c1 | inconclusive [inhibitor, single point]
Cc1cccc(NC(=O)CN2C(=O)COc3ccc(Cl)cc32)c1 | inconclusive [inhibitor, partial curve]
O=C(NCCSc1ccc(Cl)cc1)c1ccc(CN2CCOCC2)cc1 | inactive
Cc1ccc(S(=O)(=O)n2ccc3c(OCCOCCSCC(NC(=O)OC(C)(C)C)C(=O)O)cccc32)cc1 (stereo not drawn) | inconclusive [inhibitor, partial curve, poor fit]
CCCCC(=O)N(c1ccc(C(=O)O)cc1)c1nc(-c2ccc(Cl)cc2)c(CC)s1 | active: 2.33 µM
CCc1nc(N2CCN(C(C)=O)CC2)c2c3c(sc2n1)CCCC3 | inconclusive [inhibitor, partial curve]
N#Cc1ccc(/C=C\c2nccc3c2[nH]c2ccccc23)cc1 | active: 3.29 µM
CCOC(=O)C1CCCN(CC(=O)NC2=Nc3ccccc3N=C(C)C2c2ccccc2)C1 (stereo not drawn) | active: 10.4 µM
CC1(C)CC(=O)C2=C(C1)c1c(ccc3ccccc13)NC2c1cc([N+](=O)[O-])cc([N+](=O)[O-])c1O (stereo not drawn) | inconclusive [inhibitor, single point]
Cc1sc(NC(=O)c2sc3nc4c(C)cccc4cc3c2N)c(C#N)c1C | inconclusive [inhibitor, single point]
O=S(=O)(c1ccccc1)N1CCN=C1SCc1ccc(Cl)c(Cl)c1 | inconclusive [inhibitor, single point]
CCSC1=C(C#N)C(c2ccc(OC)c(OC)c2)CC(=O)N1 (stereo not drawn) | inconclusive [inhibitor, partial curve, poor fit]
CC1(C)CC2CC(C)(CN2C(=O)CN2C(=O)c3ccccc3C2=O)C1 (stereo not drawn) | inactive
